# According to PubChem BioAssay AID588342 (National Center for Advancing Translational Sciences (NCATS), 2011):
# Values joined by “and” are separate entries in the source; they are usually repeats but may differ in a detail not shown here. Equal entries are not always repeated. The whole screen tested about 360,000 compounds, of which about 25,000 (6.9%) were called active. This list was built around the results that the source calls inconclusive (neither active nor inactive); the mix of calls is not that of the screen. Calls follow the shape of the dose curve; as a rule, active = well fitted inhibition curve with a large enough effect; inconclusive = small, poorly fitted or top-dose-only effect; inactive = flat fitted curve, though single readings scatter. A potency beside an inconclusive call is a rough fit, not a confirmed value.
# Molecular target: Luciferin 4-monooxygenase (Photinus pyralis) (UniProt P08659)
# Chain of UniProt P08659 (P08659 whole entry, looked up): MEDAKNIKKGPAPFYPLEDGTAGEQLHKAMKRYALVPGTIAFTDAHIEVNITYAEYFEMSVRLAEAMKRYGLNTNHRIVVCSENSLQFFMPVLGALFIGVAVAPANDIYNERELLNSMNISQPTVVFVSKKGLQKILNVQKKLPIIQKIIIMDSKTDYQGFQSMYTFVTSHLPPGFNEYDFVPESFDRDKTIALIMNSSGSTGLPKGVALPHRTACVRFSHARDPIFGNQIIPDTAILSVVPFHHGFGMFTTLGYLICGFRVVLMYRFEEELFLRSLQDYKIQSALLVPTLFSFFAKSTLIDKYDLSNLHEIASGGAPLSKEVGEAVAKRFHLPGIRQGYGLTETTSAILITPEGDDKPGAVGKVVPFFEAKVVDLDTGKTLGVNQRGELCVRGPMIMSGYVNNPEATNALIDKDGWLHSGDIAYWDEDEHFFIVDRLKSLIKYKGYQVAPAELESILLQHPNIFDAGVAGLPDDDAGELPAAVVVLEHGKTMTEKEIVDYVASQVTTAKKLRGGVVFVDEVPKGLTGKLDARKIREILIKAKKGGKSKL
# Assay: qHTS profiling assay for firefly luciferase inhibitor/activator using purifed enzyme and Km concentrations of substrates (counterscreen for miR-21 project); also: nearly all actives have a fitted effect of over 55% in size;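 as to activity change, negative = inhibition: plate controls were vehicle for no effect and reference inhibitor for full effect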
# Conditions: purified FLuc, luminescence inhibition; series mostly up to 57.5 µM; activity change, negative = inhibition: at the top concentration
# Summary of the method: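 Biochemical qHTS of compounds, final roughly 60 µM downward over six points, against 10 nM purified firefly luciferase using Km concentrations of substrates (10 uM D-luciferin, 10 uM ATP) in Tris acetate pH 7.5 buffer; luminescence output.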
# Potency is read from the fitted curve at half-maximal effect; tags tell the direction and shape of the fitted curve.
Compound,Potency,"activity change, negative = inhibition"
Oc1ccc2ccccc2c1C=Nc1ccccc1-c1nc2ccccc2[nH]1,"inconclusive: 21.3 µM [inhibitor, single point]",
O=C(CCC(=O)Nc1ccc(F)cc1)N/N=C/c1c[nH]c2ccccc12,"inconclusive: 23.9 µM [inhibitor, partial curve, poor fit]",
CCOc1ccccc1Nc1nc(-c2sc(C)nc2C)cs1,"inconclusive: 26.9 µM [inhibitor, single point]",
COc1ccc(N=C2NC(=O)/C(=C\C=C\c3ccccc3)S2)cc1,"inconclusive: 1.51 µM [inhibitor, partial curve, poor fit]",
CCN(CC)c1ccc(NC(=O)c2ccccn2)cc1S(=O)(=O)Nc1ccccc1OC,"inconclusive: 33.8 µM [inhibitor, partial curve, poor fit]",
Cc1ccc2c(=O)c(C(=O)c3ccccc3)cn(CC(=O)Nc3ccc(C)c(Cl)c3)c2n1,,inactive: -2.58%
Nc1nc(COc2ccccc2)cs1,"inconclusive: 21.3 µM [inhibitor, partial curve, poor fit]",
O=C1C(C=Nc2ccccc2O)=C(O)c2ccccc21,"inconclusive: 1.69 µM [inhibitor, full curve, poor fit]",
Cc1ccc(N2C(=O)CS(=O)(=O)C23C(=O)N(Cc2ccccc2C)c2ccccc23)cc1Cl (stereo not given),,inactive: -3%
COc1cccc(NC(=O)c2cc(-c3ccncc3)nc3c(C)cc(C)cc23)c1,"inconclusive: 16.9 µM [inhibitor, partial curve]",
Cc1nc2ccn(Cc3ccco3)c(=O)c2cc1C(=O)Nc1ccc(F)cc1,,inactive: -1.49%
O=C(N/N=C\C=C\c1ccc2c(c1)OCO2)c1cccnc1,active: 16.9 µM,
Cc1ccc(OCC(=O)Nc2ccc3c(c2)sc(=O)n3C)cc1,"inconclusive: 21.3 µM [inhibitor, partial curve, poor fit]",
COc1cc(CC(=O)Nc2ccc(S(=O)(=O)NC3=NCCCCC3)cc2)cc(OC)c1OC,,inactive: 1.44%
Fc1cccc(Cl)c1CNc1ccc(N2CCCC2)cc1,active: 9.53 µM,
CCOc1ccc(-n2ccnc(SCC(=O)NCc3cccc(OC)c3)c2=O)cc1,"inconclusive: 21.3 µM [inhibitor, partial curve, poor fit]",
Oc1ccc(/C=N/Nc2ncnc3c2ncn3Cc2ccccc2)cc1O,active: 9.53 µM,
COc1ccc(CNC(=O)CCc2c(C)c3ccc(OC)c(C)c3oc2=O)cc1OC,,inactive: -0.0377%
CC1(C)CC(=O)C2=C(C1)NC1=C(C(=O)c3ccccc31)C2c1cc([N+](=O)[O-])ccc1O (stereo not given),"inconclusive: 37.9 µM [inhibitor, partial curve, poor fit]",
c1nc(N2CCCCCC2)c2[nH]cnc2n1,,inactive: -0.685%
Cc1oc2ccc(NS(=O)(=O)c3cccc4cccnc34)cc2c1C(=O)OC(C)C,,inactive: 2.52%
CC(C)C(=O)Nc1nnc(SCC(=O)NCc2ccco2)s1,,inactive: -0.338%
COc1ccc(/C=C2/C(=O)ON=C2C)cc1Br,"inconclusive: 23.9 µM [inhibitor, partial curve, poor fit]",
CN(C)CCCN(Cc1ccccc1)C(=S)Nc1cccc(C(F)(F)F)c1,,inactive: -2.69%
Cc1cc(NC(=O)C(C)C)n(-c2nc3ccccc3s2)n1,"inconclusive: 30.1 µM [inhibitor, single point]",

Compound,Potency,"activity change, negative = inhibition"
CC1CCN(C(=S)c2ccc(N(C)C)cc2)CC1,"inconclusive: 26.9 µM [inhibitor, partial curve, poor fit]",
CN(C)c1ncc([N+](=O)[O-])cc1C(F)(F)F,,inactive: 3.95%
Cc1ccc(-c2nnc(SCC(=O)N3CC(C)CC(C)C3)o2)cc1C (stereo not given),"inconclusive: 21.3 µM [inhibitor, single point]",
O=C(Nc1ccc(Cl)cc1)N1CCC(CN2CCCCCC2)CC1,,inactive: 2.01%
CCOc1ccc(-c2nc(CSCC(=O)NCCCN3CCCC3=O)c(C)o2)cc1,"inconclusive: 37.9 µM [inhibitor, partial curve, poor fit]",
O=C(NCCCn1ccnc1)c1ccc(COc2ccccc2)o1,,inactive: -1.21%
COc1ccc(N2CCN(C3CCCN(Cc4cccc(OC)c4)C3)CC2)cc1 (stereo not given),,inactive: 3.87%
COc1cc2ccccc2cc1C(=O)NC(=S)Nc1cc(C(=O)O)ccc1C,"inconclusive: 16.9 µM [inhibitor, partial curve]",
Cc1ccc(-c2nnc(SCC(=O)N3CCCc4ccccc43)o2)cc1,"inconclusive: 9.53 µM [inhibitor, partial curve]",
Cc1cc(N/N=C/c2ccccc2O)nc(-c2ccccc2O)n1,active: 8.49 µM,
O=C(Nc1cccc(O)c1)c1ccccc1,"inconclusive: 15.1 µM [inhibitor, partial curve]",
Cc1ccc(C(=O)N2CCN(S(=O)(=O)c3ccc(Br)cc3)CC2)o1,,inactive: -1.13%
O=C(Nc1ncc([N+](=O)[O-])s1)C1CCN(S(=O)(=O)c2cnc[nH]2)CC1,"inconclusive: 26.9 µM [inhibitor, single point]",
Cc1cc(OCC(=O)O/N=C(\N)c2ccccc2)ccc1Cl,"inconclusive: 10.7 µM [inhibitor, partial curve]",
O=C(Nc1nnc(S(=O)(=O)N2CCCCCC2)s1)c1ccccc1F,active: 10.7 µM and active: 16.9 µM,
COc1ccc(OC)c(C2=NOC(C(=O)Nc3ccccc3SC)C2)c1 (stereo not given),"inconclusive: 21.3 µM [inhibitor, partial curve, poor fit]",
COC(=O)c1ccc(C2OCC(C)(C)CO2)cc1,active: 26.9 µM,
Cn1c(-c2ccccc2)cc2c3no[n+]([O-])c3ccc21,active: 13.5 µM,
Cc1nc(N2CCOCC2)c2c(C(=O)N(C)Cc3ccccc3)c(C)oc2n1,,inactive: -1.38%
Cn1cccc1/C=N/n1c(-c2ccc(C(C)(C)C)cc2)n[nH]c1=S,active: 21.3 µM,
Cc1ccc(C(C(=O)NC(C)(C)C)N(C(=O)CCC(=O)Nc2ccccn2)c2ccccc2F)cc1 (stereo not given),,inactive: 2.27%
NC(N)=N/N=C/c1ccc(OCc2ccc(Cl)cc2)cc1,active: 6.01 µM,
Cc1ccc2nc(Nc3nc(CSc4nnnn4-c4ccccc4)cc(=O)[nH]3)nc(C)c2c1,"inconclusive: 7.57 µM [inhibitor, partial curve, poor fit]",
Cc1cc(NC(=O)c2cc(-c3ccc(Br)cc3)on2)nn1Cc1ccc(Cl)cc1,,inactive: -4.92%
COc1cc(NC(=O)c2ccc3c(Cl)c4c(nc3c2)CCC4)cc(OC)c1OC,"inconclusive: 2.13 µM [inhibitor, partial curve]",

Compound,Potency,"activity change, negative = inhibition"
C(=C\c1ccncc1)/c1ccccc1,"inconclusive: 26.9 µM [inhibitor, partial curve]",
CCC(Sc1nc2ccccc2c(=O)[nH]1)C(=O)Nc1ccc(C(C)=O)cc1 (stereo not given),"inconclusive: 16.9 µM [inhibitor, partial curve]",
COc1ccc2nc(N3CCN(C(=O)c4ccc([N+](=O)[O-])o4)CC3)sc2c1,"inconclusive: 2.69 µM [inhibitor, full curve]",
COc1ccc(C(=O)c2coc3c2C(=O)C(=O)c2ccccc2-3)cc1,,inactive: -15.9%
COc1cc2cc(CCCOC(=O)c3ccco3)oc(=O)c2cc1OC,,inactive: -0.231%
CC(C)(CC(=O)OCC(=O)Nc1ccccc1F)CC1=NS(=O)(=O)c2ccccc2N1,inactive,
COCCn1c(C)cc(C(=O)CSc2ncn[nH]2)c1C,"inconclusive: 21.3 µM [inhibitor, single point]",
Cc1ccc(/C=N/NC(=O)c2ccc(N(C)S(=O)(=O)c3ccccc3)cc2)cc1,active: 8.49 µM,
O=C(NCC1CCCO1)c1cc(-c2ccc(Cl)cc2Cl)on1 (stereo not given),active: 3.38 µM,
O=C(Nc1c(C(=O)O)[nH]c2ccc(F)cc12)c1cccc(C(F)(F)F)c1,"inconclusive: 30.1 µM [inhibitor, single point]",
O=C(COc1ccc([N+](=O)[O-])cc1)N1CCC(c2nc3ccccc3s2)CC1,,inactive: -19%
CCOc1ccc(NC(=S)NNc2ccnc3cc(Cl)ccc23)cc1,"inconclusive: 23.9 µM [inhibitor, partial curve]",
COc1ccc(/C=N/Nc2nonc2N)cc1,"inconclusive: 16.9 µM [inhibitor, partial curve]",
Cc1ccc(C)c(N2CCN(C(=O)c3ccc4nsnc4c3)CC2)c1,,inactive: -0.548%
COc1ccc(C)cc1NC(=O)C1CCC(CNS(=O)(=O)c2ccc3c(c2)CCCC(=O)N3)CC1 (stereo not given),,inactive: -4.72%
Cc1ccc(-n2cnc3cc(C(=O)NC4CCCCCC4)ccc32)c(C)c1,"inconclusive: 37.9 µM [inhibitor, partial curve, poor fit]",
CCC(C)c1ccc(O)c(NC(=S)NC(=O)c2cccnc2)c1 (stereo not given),"inconclusive: 21.3 µM [inhibitor, single point]",
CCc1ccc(Cn2nnc3c(=O)[nH]c(C4CCCN(C(=O)c5cccc(Cl)c5)C4)nc32)cc1 (stereo not given),"inconclusive: 23.9 µM [inhibitor, partial curve]",
CC(C)c1ccc(-c2noc(C3CCCN(S(C)(=O)=O)C3)n2)cc1 (stereo not given),active: 19 µM,
O=C(CSCc1cccc(Br)c1)N1CCOCC1,"inconclusive: 26.9 µM [inhibitor, partial curve, poor fit]",
CCN(CC)C(=S)Oc1ccc(Cl)cc1Cl,,inactive: 1.47%
CCc1ccccc1NC(=O)c1nn(-c2ccc(C)cc2)c(=O)c2c1c1ccccc1n2C,,inactive: 0.907%
O=C(OCC(=O)N1CCOCC1)c1ccc(F)cc1Cl,,inactive: -16.7%
Cc1cccc(-c2nnc(SCC(=O)C(C)(C)C)n2C)c1,"inconclusive: 23.9 µM [inhibitor, partial curve, poor fit]",
CCCCCc1ccc(-c2ccc(=O)[nH]n2)cc1,active: 19 µM,
